# Assay results from paper PMC6919601, “Identification of Plasmodium dipeptidyl aminopeptidase allosteric inhibitors by high throughput screening” (PLoS ONE, 2019).
# Among all 110,000 compounds or so, about 230 (0.21%) showed an effect of 50% or more. This is one part of the list.
# Target: DPAP1 (Plasmodium falciparum, UniProt Q8IIJ9)
# Test: primary screen, percent inhibition; read by cleavage of a fluorogenic dipeptide substrate; higher = more effect of the substance
# Design: species or system P. falciparum D10 trophozoite lysates; single well
# 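Note: 30 min substrate incubation versus DMSO and 10 µM JCP410 controls.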
# Chain of DPAP1 (Q8IIJ9 whole entry, looked up): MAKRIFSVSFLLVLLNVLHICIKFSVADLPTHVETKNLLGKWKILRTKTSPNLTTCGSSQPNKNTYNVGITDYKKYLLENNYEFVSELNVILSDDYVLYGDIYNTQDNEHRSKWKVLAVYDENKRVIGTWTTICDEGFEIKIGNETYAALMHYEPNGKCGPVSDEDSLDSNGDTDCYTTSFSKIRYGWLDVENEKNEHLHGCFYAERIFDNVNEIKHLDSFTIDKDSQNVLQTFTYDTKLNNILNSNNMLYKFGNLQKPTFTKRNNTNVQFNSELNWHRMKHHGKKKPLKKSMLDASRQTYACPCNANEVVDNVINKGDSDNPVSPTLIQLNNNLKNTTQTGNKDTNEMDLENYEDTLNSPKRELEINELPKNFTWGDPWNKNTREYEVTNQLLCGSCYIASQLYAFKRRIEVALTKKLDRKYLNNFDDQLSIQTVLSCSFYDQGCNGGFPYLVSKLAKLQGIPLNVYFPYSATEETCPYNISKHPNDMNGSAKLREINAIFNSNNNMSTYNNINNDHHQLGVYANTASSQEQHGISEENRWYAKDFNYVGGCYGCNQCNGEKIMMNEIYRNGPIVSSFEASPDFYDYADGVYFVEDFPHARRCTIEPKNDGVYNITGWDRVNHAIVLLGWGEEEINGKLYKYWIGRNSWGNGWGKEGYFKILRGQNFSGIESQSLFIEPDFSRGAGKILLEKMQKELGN
row,SMILES,% Inhibition @ 10 uM [%]
1,Cc1ccc2[nH]c(SCC(=O)Nc3nonc3-n3cccc3)nc2c1,1.32
2,COc1ccc(-c2cc(C(=O)O)c3ccccc3n2)cc1OC,-2.85
3,Clc1cccc(OCCCCN2CCCCC2)c1,3
4,CC(=O)Nc1ccc(C(=O)N2CCCC2)cc1,4.04
5,Cc1ccccc1C(=O)Nc1ccc(S(=O)(=O)N2CCCCCC2)cc1,6.65
6,COc1ccc2[nH]cc(CC/N=C3/SCC(=O)N3C)c2c1,6.12
7,CCCN1C(=O)c2cc(C(=O)NCCCOC(C)C)ccc2C1O (centres unmarked),4.41
8,O=C(c1ccco1)N(C1CCCCC1)C1CCCCC1,-2.22
9,CC(=O)N1CC(c2ccc(OC(C)C)cc2)CC1=O (centres unmarked),1.96
10,O=C1OC(c2ccccc2)=N/C1=C\c1ccccc1C(F)(F)F,0.997
11,O=S(=O)(c1cccc(S(=O)(=O)N2CCCCC2)c1)c1cccc(S(=O)(=O)N2CCCCC2)c1,0.937
12,CC1=C(C(=O)OCCOc2ccccc2)C(c2ccccc2F)C2=C(O)CC(C)(C)CC2=N1 (centres unmarked),0.997
13,CCOC(=O)c1cc(NC(=O)N(C(C)C)C2CCCCC2)c(C)nc1C,5.7
14,CC1=NN(C(=O)c2cc3nc(-c4ccccc4)cc(C(F)(F)F)n3n2)C(O)(C(F)(F)F)C1 (centres unmarked),-4.89
15,CC(NC(=O)Cc1ccccc1)c1nc2ccccc2n1Cc1ccccc1 (centres unmarked),2.73
16,COCCN1C(=O)c2[nH]nc(-c3ccccc3O)c2C1c1cccc(OCCC(C)C)c1 (centres unmarked),8.13
17,COc1ccccc1-c1cc(=O)n(CC(=O)NC(C)c2cccc3c2OCCO3)c2c1CCCC2 (centres unmarked),-6.68
18,COc1ccc(C)cc1C(=O)C1CC(C(=O)O)C(C)(C)C1C (centres unmarked),2.1
19,CCOc1ccccc1/N=C(C)/C=C(\O)c1cccnc1,3.19
20,C=COCCNC(=O)C(=O)NCc1ccccc1,-1.56
21,CCOC(=O)c1cc2cc(OC)ccc2oc1=O,3
22,CCCCOc1ccc(Nc2nc(C)cc(O)n2)cc1,-3.27

row,SMILES,% Inhibition @ 10 uM [%]
1,COc1ccc(NC(=O)C(C(C)C)N2C(=O)c3ccccc3C2=O)cc1 (centres unmarked),8.19
2,CCC(C)NS(=O)(=O)c1ccc(OCC(=O)N2CCc3ccccc3C2)cc1 (centres unmarked),-4.15
3,CN1CCN(CCCNC(=O)C2CCCN(c3nnc(-n4cccc4)s3)C2)CC1 (centres unmarked),2.76
4,C=CCn1c(C(C)NC(=O)c2ccc(Cl)cc2)nc2ccccc21 (centres unmarked),1.5
5,CCN(CC)C(=O)c1sc(NC(=O)c2ccccc2F)c(C#N)c1C,-0.941
6,CC(C)(Nc1ccc(Cl)cc1)c1nnnn1C(/C=C\c1ccc(Cl)cc1Cl)C(C)(C)C (centres unmarked),-2.72
7,Cc1c(C(=O)N2CCCCCC2)nnn1-c1nonc1N,-5.51
8,CCCCc1ccc2ccccc2c1C(=O)O,-0.0372
9,Cc1ccsc1CN(C(=O)COc1ccc(C(C)(C)C)cc1)C1CCS(=O)(=O)C1 (centres unmarked),-1.11
10,Cc1c(C(=O)C(=O)N2CCOCC2)c2ccccc2n1Cc1ccccc1,-3.07
11,CCC(C)(C)C1CCc2c(sc(NC(=O)c3cccnc3Cl)c2C(N)=O)C1 (centres unmarked),-3.83
12,CCCSc1ncc(Cl)c(C(=O)Nc2sc3c(c2C(=O)NCC2CCCO2)CCC3)n1 (centres unmarked),1.25
13,COc1ccc(-c2ccc3c(N)c(C(=O)Nc4ccc(F)cc4)sc3n2)cc1,-6.17
14,O=C(CSc1nnnn1-c1ccccc1)NCCc1ccccc1,-4.7
15,COc1cc(C2=N/C(=C/c3c(OC)ccc4ccccc34)C(=O)O2)cc(OC)c1OC,-6.18
16,O=[N+]([O-])c1ccc(CS(=O)(=O)Nc2cccc(C(F)(F)F)c2)cc1,-1.59
17,Cn1c(=O)c2c(nc(CN3CCOCC3)n2CCCO)n(C)c1=O,-1.43
18,CN(C)CCN(C)Cc1cccs1,2.26
19,CCCCN(C)C(=O)Cn1cccc1C(=O)c1ccccc1,-2.47
20,CN(C)c1cccc2c1C(=O)c1ccccc1C2=O,0.912
21,O=C1/C(=C\c2ccco2)CC2CC1C/C(=C/c1ccco1)C2=O,1.84
22,Cc1nc2nc(N3C(=O)CCC3=O)nn2c(C)c1Cl,-1.31

row,SMILES,% Inhibition @ 10 uM [%]
1,Cc1ccc2nc(-c3ccc(N)cc3O)oc2c1,3
2,CCOC(=O)N1CCN(S(=O)(=O)N2CCCC(C(=O)NCCCN3CCCC3=O)C2)CC1 (centres unmarked),8.2
3,C=CCc1cc(/C=C2/SC(=O)N(CC)C2=O)cc(OCC)c1O,-1.95
4,CN(C)S(=O)(=O)c1ccc(-c2cs/c(=N\c3ccccc3)n2Cc2ccccc2)cc1,-0.425
5,c1cc(CN2CCN(C3C4CC5CC(C4)CC3C5)CC2)ccn1 (centres unmarked),-8.58
6,CCOC(=O)C1CCN(Cc2ccccc2C)CC1,-3.65
7,C(=C\c1ccccc1)/CN1CCN(C2C3CC4CC(C3)CC2C4)CC1 (centres unmarked),-3.35
8,O=C(Nc1nnc(Cc2ccc(Cl)cc2Cl)s1)c1cccs1,2.3
9,O=C(NCc1ccccc1)/C(=C\c1ccc(-c2ccc(Cl)cc2)o1)NC(=O)c1ccccc1,13.9
10,COc1cccc(CSc2nc3ccncc3n2Cc2ccc(F)cc2)c1,-5.15
11,O=C(O)c1ccccc1C(=O)NCC(O)COc1ccc2ccccc2c1 (centres unmarked),-1.52
12,CCN1CCCC1CNC(=O)C1=C(C)C(=O)OC12CCCCC2 (centres unmarked),-5.58
13,O=C(CSc1nc2ccsc2c(=O)n1Cc1ccc2c(c1)OCO2)NCCCc1ccccc1,-3.49
14,COc1ccc(OCC(O)CNC(C)(C)CC(C)(C)C)cc1 (centres unmarked),-1.29
15,CCOc1ccc(NC(=O)CN2C(=O)S/C(=C/c3ccc(OC)c(O)c3)C2=O)cc1,-1.57
16,c1ccc(C2OCC3Cc4ccccc4C3O2)cc1 (centres unmarked),1.63
17,CC(=O)N1CCC2(CC1)OC(=O)C(C)=C2C(=O)N1CCc2ccccc2C1,-1.31
18,O=C(OCCN1CCOCC1)c1ccc(O)cc1O,-1.06
19,Cc1c(Cl)cccc1NC(=O)c1cnn(-c2ccccc2)c1C,3.49
20,CCCCc1ccc(-c2csc(N)n2)cc1,-9.53
21,CN(Cc1ccccc1)C(=O)c1cnn(-c2ccccc2)c1-n1cccc1,-3.35
